Measured values published in PubChem BioAssay (Tox21).
Values joined by “and” are separate entries in the source; they are usually repeats but may differ in a detail not shown here. Equal entries are not always repeated. The inconclusive results got no clear call from the source; some entries with a clear call stand among them for comparison. Potencies beside an inconclusive call are fits to weak or partial responses and may not hold up. Active and inactive are the calls of the source. Calls follow the shape of the dose curve; as a rule, active = well fitted activation curve with a large enough effect in the repeat runs; inconclusive = weak or mixed curves; inactive = flat fitted curve, though single readings scatter.

assay: A CellTox Green Cytotoxicity Assay to monitor cytotoxicity in HepG2 cells - 16 hour (AID 1224876); conditions: CellTox Green fluorescence; series mostly up to 76.8 µM; also: nearly all actives have a fitted effect of over 45% in size
Excerpt: National Center for Advancing Translational Sciences [NCATS]
NIH Chemical Genomics Center [NCGC]
U.S. Environmental Protection Agency [EPA]
National Institutes of Environmental Health Sciences [NIEHS]
National Toxicology Program [NTP]
Cell-based models are critical for drug discovery. Determining the natural cytotoxic effects resulting from test compounds is an essential research activity. A CellTox Green Cytotoxicity Assay to monitor cytotoxicity in real time of continues cell culture during 40 hours of the compound treatment was used to screen Tox21 10K library compounds in HepG2 cells. CellTox Green Cytotoxicity Assay is a nonlytic, homogeneous, biofluorescent method to measure cytotoxicity in cell culture after experimental manipulation. The assay system uses a proprietary asymmetric cyanine dye that is excluded from viable cells but preferentially stains the dead cell's DNA. […] Viable cells produce no appreciable increases in fluorescence. Therefore, the fluorescence signal produced by the binding interaction with dead cell DNA is proportional to cytotoxicity.
The mixture of HepG2 cell suspension and reagents were dispensed at 600cells/6 ul/well in 1536-well tissue culture treated black solid bottom plates using a Multidrop dispenser. After the assay plates were incubated at a 37 C/5% CO2 incubator for 5 hours, 23 nL of compounds dissolved in DMSO, positive and negative controls was transferred to the assay plate by a pintool work station. The plates were incubated at 37 C for 40 hours. The fluorescence intensity were measured at 0h, 8h, 16h, 24h, 32h and 40h time points using ViewLux plate reader during compound treatment.
Potency is read from the fitted curve at half-maximal effect; tags tell the direction and shape of the fitted curve.

| Structure (SMILES) | Potency |
| --- | --- |
| OCCCCC(O)CO (stereo not given) | inactive |
| O=[N+]([O-])C1(Br)COCOC1 | inconclusive: 54.9 µM [activator, single point] |
| CC1C(C)(C)C2=C(C(=O)CCC2)C1(C)C (stereo not given) | inconclusive: 49 µM [activator, partial curve, poor fit] |
| NC(=O)c1cnccn1 | inconclusive: 40.3 µM [activator, partial curve, poor fit] |
| c1ccc2[nH]cnc2c1 | inconclusive: 21.9 µM [activator, partial curve, poor fit] |
| Oc1ccc2ccccc2c1 | inconclusive: 21.9 µM [activator, single point] |
| CCc1cc2cc(OC)c(OC)cc2c(Cc2ccccc2)n1 | inconclusive: 10.7 µM [activator, single point] |
| COC1=CC(=O)C[C@@H](C)[C@]12Oc1c(Cl)c(OC)cc(OC)c1C2=O | inconclusive: 24.5 µM [activator, full curve, poor fit] |
| C=CC(=O)NC(C)C | inactive |
| CCC(=O)c1ccc2c(c1)N(CCCN(C)C)c1ccccc1S2 | inconclusive: 23.9 µM [activator, single point] |
| CO[C@@H]1[C@@H](OC)[C@H](C)[C@@](O)(CC(=O)O)O[C@H]1[C@H](C)[C@H]1O[C@@]2(CC[C@@](C)([C@H]3CC[C@@](C)([C@@H]4O[C@@H]([C@H]5O[C@](C)(O)[C@H](C)C[C@@H]5C)C[C@@H]4OC4C[C@H](OC)[C@@H](OC)[C@H](C)O4)O3)O2)C[C@H](O)[C@H]1C (stereo not given in full) | inconclusive: 1.69 µM [activator, partial curve] |
| COC(=O)N/N=C/c1c[n+]([O-])c2ccccc2[n+]1[O-] | active: 23.9 µM |
| C=CCN(CC=C)CC=C | inactive |
| CCCc1ccc(OCC(=O)N2CCN(C(=O)COc3ccc(CCC)cc3OC)CC2)c(OC)c1 | inconclusive: 23.9 µM [activator, single point] |
| O=c1[nH]c2ccccc2n1CCCN1CCN(C(c2ccccc2)c2ccccc2)CC1 | inconclusive: 23.9 µM [activator, single point] |
| C[C@@H]1O[C@@H](OC[C@H]2O[C@@H](Oc3c(-c4ccc(O)c(O)c4)oc4cc(O)cc(O)c4c3=O)[C@H](O)[C@@H](O)[C@@H]2O)[C@H](O)[C@H](O)[C@H]1O | inconclusive: 15.6 µM [activator, partial curve, poor fit] |
| CC(C)CC(C)CC(O)CC(C)C (stereo not given) | inconclusive: 54.9 µM [activator, single point] |
| CCCCOC(=O)c1ccc(O)cc1 | inconclusive: 62.4 µM [activator, single point] and inconclusive: 54.9 µM [activator, partial curve, poor fit] |
| O=C1CCCCC1 | inconclusive: 24.5 µM [activator, single point] |
| Cn1c(=O)c2c(ncn2CCO)n(C)c1=O | inconclusive: 26.8 µM [activator, single point] |

| Structure (SMILES) | Potency |
| --- | --- |
| COc1cc2ncnc(Nc3ccc(F)c(Cl)c3)c2cc1OCCCN1CCOCC1 | active: 23.9 µM |
| COc1nc(C)nc(Cl)c1NC1=NCCN1 | inactive |
| CC(C)(C)C1CCC(O)CC1 (stereo not given) | inactive |
| O=C(/C=C/c1ccc([N+](=O)[O-])cc1)c1ccccc1 | active: 21.9 µM |
| CCN(CC)CCCC(C)Nc1c2ccc(Cl)cc2nc2ccc(OC)cc12 (stereo not given) | active: 16.9 µM |
| CCOC(=O)C(C)Oc1ccc(Oc2cnc3cc(Cl)ccc3n2)cc1 (stereo not given) | inactive |
| O=C(O)c1ccccc1[N+](=O)[O-] | inactive |
| CO[C@@]12[C@H](COC(N)=O)C3=C(C(=O)C(C)=C(N)C3=O)N1C[C@@H]1N[C@@H]12 | inconclusive: 9.52 µM [activator, full curve, poor fit] |
| CC(C)=CCC[C@](C)(O)[C@@H]1CC=C(C)CC1 | active: 43.6 µM |
| CCOC(=O)c1ccc(NC(=O)CN2CCCCC2)cc1 | inactive |
| CCCCCCCCCCCCCCN(CCO)CCO | active: 49 µM |
| CCCCCN(CCCOC)C(=O)C(CCC(=O)O)NC(=O)c1ccc(Cl)c(Cl)c1 (stereo not given) | inconclusive: 10.7 µM [activator, single point] |
| OC1CCC(C2CCCCC2)CC1 (stereo not given) | inconclusive: 49 µM [activator, single point] |
| CC1=Nc2ccccc2C1(C)C | inconclusive: 55 µM [activator, single point] |
| COc1ccc(-c2coc3cc(O)cc(O)c3c2=O)cc1 | inconclusive: 49.4 µM [activator, partial curve, poor fit] and inconclusive: 61.7 µM [activator, single point] |
| S=C([S-])NCCNC(=S)[S-].S=C([S-])NCCNC(=S)[S-].[Mn+2].[Zn+2] | inactive |
| CCCCCCCCC1CO1 (stereo not given) | inactive |
| O=C(O)CCCc1ccccc1 | inconclusive: 10.7 µM [activator, single point] |
| CCCCC(CC)COC(=O)CCCCCCCC(=O)OCC(CC)CCCC (stereo not given) | inconclusive: 61.6 µM [activator, single point] |
| CN(C)CCCN1c2ccccc2CCc2ccccc21 | inconclusive: 43.6 µM [activator, partial curve, poor fit] and inconclusive: 26.8 µM [activator, single point] |
